# Assay results from PubChem BioAssay AID686979 (National Center for Advancing Translational Sciences (NCATS), 2013).
# About 50,000 (12%) of roughly 420,000 compounds were called active. Another 26% or so got no clear call; they are omitted. Calls come from the whole dose curve; as a rule, active = well fitted inhibition curve with a large enough effect; inconclusive = small, poorly fitted or top-dose-only effect; inactive = flat fitted curve, though single readings scatter. Only a part is listed here, and it is no random draw.
# Experiment: qHTS for Inhibitors of human tyrosyl-DNA phosphodiesterase 1 (TDP1): qHTS in cells in presence of CPT; note: nearly all actives have a fitted effect of over 55% in size
# Settings: chicken DT40 Tdp1-/-;hTDP1 cells + 20 nM CPT, ATP luminescence, 48 h; series mostly up to 46.2 µM; activity change, negative = growth inhibition: at the top concentration
# Summary of the method: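 Chicken DT40 Tdp1-/- cells stably complemented with human TDP1 were seeded at 400 cells/well in medium containing 20 nM camptothecin, exposed to pin-transferred compounds, and grown at 37 °C for at least 48 hr. Viability was read as ATP luminescence.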
# % is set by controls: 0 for no effect and ±100 for the full control effect; potency is the fitted concentration of half-maximal effect.
Structure (SMILES),"activity change, negative = growth inhibition",Potency
Cc1ccccc1NC(=O)NCc1cccnc1,inactive: 39%,–
Cc1ccccc1-c1nc(CN2CCC(C(=O)NCCC3=CCCCC3)CC2)c(C)o1,–,active: 18.4 µM
COC(=O)[C@@H]1C[C@@H]2CC[C@@H](O)C[C@@H]2N1Cc1ccc(Cl)cc1,inactive: -13.2%,–
Cc1ccc(CNC(=O)c2ccc(Cn3c(=O)c4ccccc4n(CC(=O)Nc4ccc(C)cc4C)c3=O)cc2)cc1,–,active: 16.4 µM
COc1ccccc1N1CCN(C(=S)Nc2ccccc2)CC1,inactive: -26.3%,–
N[C@H](CSCc1ccccc1)C(=O)Nc1ccc([N+](=O)[O-])cc1,inactive: -15.2%,–
Cc1cc(C)cc(OCC(=O)NCCc2nc3ccccc3[nH]2)c1,inactive: -17.8%,–
CNc1ccc(S(=O)(=O)NC)cc1[N+](=O)[O-],inactive: -10.5%,–
Fc1cnc(Cl)nc1N1CCN(c2ccccc2)CC1,inactive: 43%,–
CC1CCCC(C)N1C(=O)COC(=O)c1cc(=O)[nH]c2ccccc12 (stereo not given),inactive: 30.5%,–
COc1ccc2[nH]cc(CC(N)C(=O)O)c2c1 (stereo not given),inactive: -20.6%,–
COc1ccc2c(c1)c(CC(=O)O)c(C)n2C(=O)c1ccc(Cl)cc1,–,inactive
Oc1cc(O)c2c(c1)O[C@H](c1ccc(O)c(O)c1)[C@H](O)C2,–,inactive
Cc1cc2ccccc2n2c(SCC(=O)Nc3ccc(S(=O)(=O)N4CCC(C)CC4)cc3)nnc12,–,active: 29.1 µM
CC(C)C[C@H]1CN(CCCC[C@@H]2CNC(=O)C(=O)N2Cc2ccccc2)C(=O)C(=O)N1CCc1ccccc1,inactive: -3.39%,–
COc1ccc(Nc2nc(C)cc(C)c2C#N)c(OC)c1,inactive: 38.4%,–
CC1(C)CCC(C)(C)NC(=S)N1,inactive: 8.2%,–
COc1ccc(-c2nn(C)c3sc(C(=O)Nc4cccc(F)c4)cc23)cc1OC,–,active: 14.6 µM
C[C@](O)(C(=O)Nc1ccc(S(=O)(=O)c2ccccc2)cc1)C(F)(F)F,inactive: -3.92%,–
CC(C)NCC(O)COc1ccccc1-n1cccc1 (stereo not given),inactive: 4.56%,–
COc1ccc(NC(=O)Cn2cnc3ccc(S(=O)(=O)N4CCC(C)CC4)cc3c2=O)cc1OC,–,active: 25.9 µM
CCCc1c(-c2ccc(O)cc2)nn(-c2ccc(O)cc2)c1-c1ccc(O)cc1,inactive: 4.76%,–
CC(=O)N1CCCC1C(=O)O (stereo not given),inactive: 2.07%,–
CN1CCN(NC(=O)c2cccc(F)c2)CC1,inactive: 38.1%,–
Cc1ccc(C)c(N2CCN(CCCNC(=O)c3cnn(-c4ccccc4Cl)c3C3CCN(C(=O)OC(C)(C)C)CC3)CC2)c1,–,active: 4.61 µM

Structure (SMILES),"activity change, negative = growth inhibition",Potency
CN(C)CCNC(=O)c1coc(=O)c(Br)c1,–,active: 2.31 µM
CCCCCc1ccc(-c2cn(Cc3ccc(C)cc3)nn2)cc1,inactive: -7.01%,–
O=S(=O)(Nc1cccc(-c2ccc(N3CCCCCC3)nn2)c1)c1cccc(F)c1,inactive: -15.4%,–
CCOC(=O)Cc1ccc(Nc2nc(NCCOC)nc3ccsc23)cc1,–,active: 13 µM
C/C=C(/C)C(=O)OC1Cc2c(ccc3ccc(=O)oc23)OC1(C)C (stereo not given),inactive: 8.44%,–
Cc1ccc(S(=O)(=O)NCCSc2nnnn2-c2ccccc2)cc1,inactive: -21.9%,–
Cc1cc(C(=O)COC(=O)c2ccc(O)cc2O)c(C)n1C(C)C,–,active: 18.4 µM
C#CCNC(=O)C1=C[C@H](c2ccc(C#C)cc2)C[C@H](OCc2ccc(CO)cc2)O1,inactive: -3.07%,–
O=C(Nc1cccc(Cl)c1)c1csc([C@@H]2C[C@H](O)[C@@H](CO)O2)n1,inactive: -21.5%,–
COc1cccc(C2Nc3c(F)cc(Br)cc3C3C=CCC32)c1OC (stereo not given),–,active: 16.4 µM
O=C(c1cc(-c2cccc(Cl)c2)on1)N1CCCCCC1,inactive: 2.7%,–
CC(=O)C[C@H]1c2cc(C(F)(F)F)ccc2S(=O)(=O)N1Cc1ccccc1,inactive: 0.704%,–
O=C(NC1C=CS(=O)(=O)C1)c1ccccc1 (stereo not given),inactive: 30.9%,–
CCCn1c(SCC(=O)NCC2CCCO2)nc2c1c(=O)n(C)c(=O)n2C (stereo not given),inactive: 2.74%,–
CC12CCC(CC1=O)C2(C)C (stereo not given),inactive: 7.14%,–
C[C@H]1CN([C@@H](C)CO)C(=O)CCCn2cc(nn2)CO[C@@H]1CN(C)C(=O)C1CCCCC1,inactive: 4.87%,–
CC(C)Cc1nnc(NC(=O)C2CC(=O)N(Cc3ccccc3)C2)s1 (stereo not given),inactive: 30.1%,–
O=C(NCc1cccs1)C1CC1,inactive: 44.7%,–
CCOc1ccc(CNC(=O)Cn2c(=O)c3cccn3c3ccccc32)cc1,inactive: -6.4%,–
COc1[nH]c(/N=C/c2ccccc2)c(C#N)c1C#N,inactive: -26.9%,–
Cc1ccc(NC(=O)CSc2nc3nc(C)c(Br)cc3[nH]2)cc1F,inactive: -7.15%,–
CCCCSCCCNC(=O)c1cn(C)c2ccc(S(=O)(=O)N3CCCC3)cc2c1=O,inactive: -21.8%,–
CCOC(=O)N1CCC(N2CCCC(C(=O)c3ccccc3OC)C2)CC1 (stereo not given),inactive: 34%,–
CCO[C@@H]1OC(C(=O)N2CCOCC2)=C[C@H](C)[C@H]1CCCO,inactive: -22.2%,–
Cc1cc(C)n(CCNC(=O)c2cc(COc3ccc4ncccc4c3)on2)n1,–,active: 20.6 µM
